Experimental data taken from patent publication US5017689A, “Dynorphin analogs specific for kappa opioid receptors” (Arizona Technology Development Corporation, priority 1989, dated 1991).
Not every detail of the peptide structures is certain; ends, links or a residue may be inferred. Bridge positions count the residues as written; N and C are the ends. Peptide text beside a SMILES is read from it.

Experiments:
[1] = target: T1, κ opioid receptors (Cavia porcellus, UniProt P41144); experiment: Radioligand binding, inhibition of [3H]U-69593 binding to guinea pig brain membrane; conditions: selectivity, ratio of IC50 values
T1 construct: from tissue; host or cells: whole guinea pig brain membranes
T1 sequence (P41144 whole entry): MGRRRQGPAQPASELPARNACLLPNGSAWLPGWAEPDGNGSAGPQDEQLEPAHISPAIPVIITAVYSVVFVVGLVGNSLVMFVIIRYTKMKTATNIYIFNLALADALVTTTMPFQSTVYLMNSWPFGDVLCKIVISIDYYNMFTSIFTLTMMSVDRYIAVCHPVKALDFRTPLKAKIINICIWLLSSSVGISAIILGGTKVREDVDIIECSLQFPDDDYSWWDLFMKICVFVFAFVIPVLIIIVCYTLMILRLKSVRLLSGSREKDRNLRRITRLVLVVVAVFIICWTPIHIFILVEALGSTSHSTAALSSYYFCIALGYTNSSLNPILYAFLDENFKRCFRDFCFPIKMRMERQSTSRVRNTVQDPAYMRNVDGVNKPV

[2] = tested on: guinea pig ileum (GPI) longitudinal muscle/myenteric plexus preparation; experiment: Guinea pig ileum (GPI) longitudinal muscle/myenteric plexus bioassay; format: cell-based; conditions: for Ke (nM) for: NLX: naloxone 1000 nM; for Ke (nM) for: CTAP: μ antagonist CTAP 1000 nM
Procedure: (§1) The known guinea pig ileum (GPI) longitudinal muscle/myenteric plexus preparation was used for in vitro bioassays (Kosterlitz, H.W., Lydon, R.J., and Watt, A.J., (1970), Br. J. Pharmacol., 39, 398-413). The tissues were suspended under a final tension of 1 g in organ baths, bathed with Krebs buffer (NaCl 118 mM, KCl 4.7 mM, CaCl2 2.5 mM, KH2 PO4 1.19 mM, MgSO4 1.18 mM, NaHCO3 25 mM, and glucose 11.48 mM), maintained at 37° C. and aerated with 95% O2 /5% CO2. Electrical stimuli were 0.4 msec pulses of supramaximal voltage, at a rate 6/min. Isometric contractions were measured via strain gauge force transducers on chart recorders. The mouse vas deferens (MVD) preparation was also performed as described by Hughes et al. (Hughes, J., Kosterlitz, H.W., and Leslie, F.M., (1975), Br. J. Pharmacol., 53, 371-381). The Krebs buffer was made as above, but without magnesium and the tissues were suspended under a final tension of 500 mg. Pulse duration was 2 msec. Dose-response testing in all preparations was carried out in a cumulative fashion. The compounds were tested for intrinsic agonist activity in the two in vitro bioassays. Thus, concentrations showing intrinsic activity for each analog were tested in the presence of naloxone (1000 nM) to define opioid activity. To further define the opioid selectivity of the agonist effect, the δ selective antagonist ICI 174,864 (Cotton, R., Giles, M.G., Miller, L., Shaw, J.S., and Timms, D. (1984), Eur. J. Pharmacol., 97, 331-332) was utilized in the MVD, and the μ selective antagonists CTAP (Pelton, J.T., Kazmierski, W., Gulya, K., Yamamura, H.I., and Hruby, V.J. (1986), J. Med. Chem., 29, 2370-2375) or CTP (Pelton, J.T., Gulya, K., Hruby, V.J., Duckles, S., and Yamamura, H.I. (1985) Proc. Natl. Acad. Sci. U.S.A., 82, 236-239) were employed in the GPI, all at 1000 nM. Ke values were calculated according to the formula: […]
(§2) where [Ant] is the concentration of the antagonist, and DR is the dose ratio (i.e., IC50 after antagonism divided by the IC50 before antagonist activity was measured).

[3] = tested on: mouse vas deferens (MVD) preparation; experiment: Mouse vas deferens (MVD) bioassay; format: cell-based; conditions: for Ke (nM) for: NLX: naloxone 1000 nM; for Ke (nM) for: ICI: δ antagonist ICI 174,864 1000 nM; for Ke (nM) for: CTAP: μ antagonist CTAP 1000 nM
Procedure: as §1, §2

[4] = In vivo analgesia, icv

Row | SMILES | δ/κ [1] | μ/κ [1] | IC50 [2] | Ke (nM) for: NLX [2] | Ke (nM) for: CTAP [2] | IC50 [3] | Ke (nM) for: NLX [3] | Ke (nM) for: ICI [3] | Ke (nM) for: CTAP [3] | potency and selectivity in the GPI bioassay [2] | agonism in vivo [4] | analgesia A50 [4]
1 | CC[C@H](C)[C@H](NC(=O)[C@H](CCCNC(=N)N)NC(=O)[C@H](CCCNC(=N)N)NC(=O)[C@H](CC(C)C)NC(=O)[C@H](Cc1ccccc1)NC(=O)CNC(=O)CNC(=O)[C@@H](N)Cc1ccc(O)cc1)C(=O)N[C@@H](CCCNC(=N)N)C(=O)N1CCC[C@H]1C(=O)N[C@@H](CCCCN)C(=O)N[C@@H](CC(C)C)C(=O)N[C@@H](CCCCN)C(N)=O [Dyn A1-13NH2, reference compound] | 27 | 12 | 1.7 nM | 82 nM | 2000 nM | 7.8 nM | 100 nM | – | – | – | – | –
2 | CC[C@H](C)[C@H](NC(=O)[C@H](CCCNC(=N)N)NC(=O)[C@H](CCCNC(=N)N)NC(=O)[C@H](CC(C)C)NC(=O)[C@H](Cc1ccccc1)NC(=O)CNC(=O)CNC(=O)[C@@H](N)Cc1ccc(O)cc1)C(=O)N[C@@H](CCCNC(=N)N)C(=O)N1CCC[C@H]1C(=O)N[C@@H](CCCCN)C(=O)N[C@@H](CC(C)C)C(=O)N[C@@H](CCCCN)C(=O)N[C@@H](Cc1c[nH]c2ccccc12)C(=O)N[C@@H](CC(=O)O)C(=O)N[C@@H](CC(N)=O)C(=O)N[C@@H](CCC(N)=O)C(=O)O [Dyn A1-17OH, reference compound] | – | – | 2.5 nM | 66.7 nM | – | – | – | – | – | – | – | –
3 | CC(C)C[C@@H]1NC(=O)[C@H](CCCCN)NC(=O)[C@@H]2CCCN2C(=O)[C@H](CCCNC(=N)N)NC(=O)[C@H](NC(=O)[C@H](CCCNC(=N)N)NC(=O)[C@H](CCCNC(=N)N)NC(=O)[C@H](CC(C)C)NC(=O)[C@H](Cc2ccccc2)NC(=O)CNC(=O)CNC(=O)[C@@H](N)Cc2ccc(O)cc2)CSSC[C@@H](C(N)=O)NC1=O [Compound 4] | – | – | 2.27 nM | 32.3 nM | 256 nM | 24.5 nM | 35.6 nM | 667 nM | 370 nM | – | – | –
4 | CC[C@H](C)[C@H](NC(=O)[C@H](CCCNC(=N)N)NC(=O)[C@H](CCCNC(=N)N)NC(=O)[C@H](CC(C)C)NC(=O)[C@H](Cc1ccccc1)NC(=O)CNC(=O)CNC(=O)[C@@H](N)Cc1ccc(O)cc1)C(=O)N[C@@H](CCCNC(=N)N)C(=O)N1CCC[C@H]1C(=O)N[C@@H](CCCCN)C(N)=O [Dyn A1-11NH2, reference compound] | – | – | 7.5 nM | – | – | 204 nM | 125 nM | 625 nM | – | – | – | –
5 | C[C@H]1NC(=O)[C@H](CCCNC(=N)N)NC(=O)[C@H](CCCNC(=N)N)NC(=O)[C@@H](NC(=O)[C@H](Cc2ccccc2)NC(=O)CNC(=O)CNC(=O)[C@@H](N)Cc2ccc(O)cc2)CSSC[C@@H](C(N)=O)NC(=O)[C@@H]2CCCN2C(=O)[C@H](CCCNC(=N)N)NC1=O [Compound 2] | – | – | 4410 nM | – | 50 nM | 1660 nM | – | 21.3 nM | – | – | – | –
6 | CC(C)C[C@H](NC(=O)[C@H](Cc1ccccc1)NC(=O)CNC(=O)CNC(=O)[C@@H](N)Cc1ccc(Br)cc1)C(=O)N[C@@H](CCCNC(=N)N)C(=O)N[C@@H](CCCNC(=N)N)C(=O)N[C@H](C)C(=O)N[C@@H](CCCNC(=N)N)C(=O)N1CCC[C@H]1C(=O)N[C@@H](CCCCN)C(N)=O [Compound 7, [p-BrPhe^1, D-Ala^8]Dyn A1-11NH2] | 624 | 28 | – | – | – | – | – | – | – | – | – | –
7 | CC(C)C[C@@H]1NC(=O)[C@H](CCCCN)NC(=O)[C@@H]2CCCN2C(=O)[C@H](CCCNC(=N)N)NC(=O)[C@@H](NC(=O)[C@H](CCCNC(=N)N)NC(=O)[C@H](CCCNC(=N)N)NC(=O)[C@H](CC(C)C)NC(=O)[C@H](Cc2ccccc2)NC(=O)CNC(=O)CNC(=O)[C@@H](N)Cc2ccc(O)cc2)CSSC[C@@H](C(N)=O)NC1=O [Compound 3] | – | – | 1.3 nM | 38.9 nM | – | 20.1 nM | 95.2 nM | 156 nM | 175 nM | – | – | –
8 | CC(C)C[C@H](NC(=O)[C@H](Cc1ccccc1)NC(=O)CNC(=O)CNC(=O)[C@@H](N)Cc1ccc(O)cc1)C(=O)N[C@@H](CCCNC(=N)N)C(=O)N[C@@H](CCCNC(=N)N)C(=O)N[C@@H]1CSSC[C@H](C(N)=O)NC(=O)[C@H](CC(C)C)NC(=O)[C@H](CCCCN)NC(=O)[C@@H]2CCCN2C(=O)[C@H](CCCNC(=N)N)NC1=O [drawing 6] | – | – | – | – | – | – | – | – | – | selective and potent | full agonist | 10 µg
9 | CC[C@H](C)[C@@H]1NC(=O)[C@H](CCCNC(=N)N)NC(=O)[C@H](CCCNC(=N)N)NC(=O)[C@@H](NC(=O)[C@H](Cc2ccccc2)NC(=O)CNC(=O)CNC(=O)[C@@H](N)Cc2ccc(O)cc2)CSSC[C@@H](C(N)=O)NC(=O)[C@@H]2CCCN2C(=O)[C@H](CCCNC(=N)N)NC1=O [Compound 1] (H-YGGFCRRIRPC-NH2; disulfide 5-11) | 48 | 6 | 1080 nM | 66.7 nM | – | 421 nM | 80 nM | 86.2 nM | 2000 nM | – | – | –
10 | CC[C@H](C)[C@H](NC(=O)[C@H](CCCNC(=N)N)NC(=O)[C@H](CCCNC(=N)N)NC(=O)[C@H](CC(C)C)NC(=O)[C@H](Cc1ccccc1)NC(=O)CNC(=O)CNC(=O)[C@@H](N)Cc1ccccc1)C(=O)N[C@@H](CCCNC(=N)N)C(=O)N1CCC[C@@H]1C(=O)N[C@@H](CCCCN)C(N)=O [Compound 6, [Phe^1, D-Pro^10]Dyn A1-11NH2] | 163 | 50 | – | – | – | – | – | – | – | – | – | –
